Assay results reported in the supplement of paper PMC8728848.
This is one part of the list.

What was measured:
Test in all cases: glycan array binding signal (z-score within array); higher = stronger binding
Details in all cases: glycan notation: IUPAC condensed, linker removed
[1] = target: Neu5Ac(a2-3)Gal(b1-4)[Fuc(a1-3)]GlcNAc(b1-3)Gal
How it was run: (§1)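 Glycan array data came from 3228 arrays in the Consortium for Functional Glycomics database, and only arrays with an available protein sequence were kept. Glycan names were put into IUPAC-condensed notation, and columns mapping to the same glycan were averaged. The binding signal is a within-array Z-score, averaged across arrays of one protein sequence run at different concentrations or buffers and across linkers. A negative Z-score can be read as non-binding.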

[2] = target: Neu5Ac(a2-3)Gal(b1-4)[Fuc(a1-3)]GlcNAc(b1-3)Gal(b1-4)GlcNAc
How it was run: as §1

[3] = target: Neu5Ac(a2-3)Gal(b1-4)[Fuc(a1-3)]GlcNAc(b1-3)Gal(b1-4)[Fuc(a1-3)]GlcNAc(b1-3)Gal(b1-4)[Fuc(a1-3)]GlcNAc
How it was run: as §1

[4] = target: Neu5Ac(a2-3)Gal(b1-4)[Fuc(a1-3)]GlcNAc(b1-3)GalNAc
How it was run: as §1

[5] = target: Neu5Ac(a2-3)Gal(b1-4)[Fuc(a1-3)]GlcNAc(b1-6)[Gal(b1-3)]GalNAc
How it was run: as §1

[6] = target: Neu5Ac(a2-3)Gal(b1-4)[Fuc(a1-3)]GlcNAc(b1-6)[Neu5Ac(a2-3)Gal(b1-3)]GalNAc
How it was run: as §1

[7] = target: Neu5Ac(a2-3)Gal(b1-4)[Fuc(a1-3)]GlcNAc6S
How it was run: as §1

[8] = target: Neu5Ac(a2-3)Gal6S(b1-4)GlcNAc
How it was run: as §1

[9] = target: Neu5Ac(a2-3)Gal6S(b1-4)[Fuc(a1-3)]GlcNAc
How it was run: as §1

Neu5Ac(a2-3)GalNAc = target: Neu5Ac(a2-3)GalNAc
How it was run: as §1

[10] = target: Neu5Ac(a2-3)GalNAc(b1-4)GlcNAc
How it was run: as §1

[11] = target: Neu5Ac(a2-3)[GalNAc(b1-4)]Gal(b1-4)Glc
How it was run: as §1

[12] = target: Neu5Ac(a2-3)[GalNAc(b1-4)]Gal(b1-4)GlcNAc
How it was run: as §1

[13] = target: Neu5Ac(a2-3)[GalNAc(b1-4)]Gal(b1-4)GlcNAc(b1-3)GalNAc
How it was run: as §1

[14] = target: Neu5Ac(a2-3)[Neu5Ac(a2-6)]GalNAc
How it was run: as §1

Neu5Ac(a2-6)Gal = target: Neu5Ac(a2-6)Gal
How it was run: as §1

[15] = target: Neu5Ac(a2-6)Gal(b1-3)GlcNAc(b1-3)[Gal(b1-4)GlcNAc(b1-6)]Gal(b1-4)Glc
How it was run: as §1

Neu5Ac(a2-6)Gal(b1-4)Glc = target: Neu5Ac(a2-6)Gal(b1-4)Glc
How it was run: as §1

[16] = target: Neu5Ac(a2-6)Gal(b1-4)GlcNAc
How it was run: as §1

[17] = target: Neu5Ac(a2-6)Gal(b1-4)GlcNAc(b1-2)Man
How it was run: as §1

[18] = target: Neu5Ac(a2-6)Gal(b1-4)GlcNAc(b1-2)Man(a1-3)Man(b1-4)GlcNAc(b1-4)GlcNAc
How it was run: as §1

[19] = target: Neu5Ac(a2-6)Gal(b1-4)GlcNAc(b1-2)Man(a1-3)[Gal(b1-4)GlcNAc(b1-2)Man(a1-6)]Man(b1-4)GlcNAc(b1-4)GlcNAc
How it was run: as §1

[20] = target: Neu5Ac(a2-6)Gal(b1-4)GlcNAc(b1-2)Man(a1-3)[GlcNAc(b1-2)Man(a1-6)]Man(b1-4)GlcNAc(b1-4)GlcNAc
How it was run: as §1

[21] = target: Neu5Ac(a2-6)Gal(b1-4)GlcNAc(b1-2)Man(a1-3)[GlcNAc(b1-2)Man(b1-4)GlcNAc(b1-2)Man(a1-6)]Man(b1-4)GlcNAc(b1-4)GlcNAc
How it was run: as §1

[22] = target: Neu5Ac(a2-6)Gal(b1-4)GlcNAc(b1-2)Man(a1-3)[GlcNAc(b1-4)][Neu5Ac(a2-6)Gal(b1-4)GlcNAc(b1-2)Man(a1-6)]Man(b1-4)GlcNAc(b1-4)GlcNAc
How it was run: as §1

[23] = target: Neu5Ac(a2-6)Gal(b1-4)GlcNAc(b1-2)Man(a1-3)[Man(a1-6)]Man(b1-4)GlcNAc(b1-4)GlcNAc
How it was run: as §1

[24] = target: Neu5Ac(a2-6)Gal(b1-4)GlcNAc(b1-2)Man(a1-3)[Neu5Ac(a2-3)Gal(b1-4)GlcNAc(b1-2)Man(a1-6)]Man(b1-4)GlcNAc(b1-4)GlcNAc
How it was run: as §1

[25] = target: Neu5Ac(a2-6)Gal(b1-4)GlcNAc(b1-2)Man(a1-3)[Neu5Ac(a2-6)Gal(b1-4)GlcNAc(b1-2)Man(a1-6)]Man(b1-4)GlcNAc(b1-4)GlcNAc
How it was run: as §1

[26] = target: Neu5Ac(a2-6)Gal(b1-4)GlcNAc(b1-2)Man(a1-3)[Neu5Ac(a2-6)Gal(b1-4)GlcNAc(b1-2)Man(a1-6)]Man(b1-4)GlcNAc(b1-4)[Fuc(a1-6)]GlcNAc
How it was run: as §1

B1: rAAL-2 (Agrocybe aegerita) (protein)
chain: MTSNVITQDLPIPVASRGFADIVGFGLDGVVIGRNAVNLQPFLAVKNFAQNAGGWLTTKHVRLIADTTGTGKGDIVGFGNAGVYVSVNNGKNTFADPPKMVIANFGYDAGGWRVEKHLRYLADIRKIGRADIIGFGEKGVLVSRNNGGLNFGPATLVLKDFGYDAGGWRLDRHLRFLADVTGNGHLDIVGFGDKHVFISRNNGDGTFAPAKSVIDNFCIDAGGWKIGDHPRFVADLTGDGTADIIGCGKAGCWVALNNGGGVFGQVKLVINDFGTDKGWQAAKHPRFIADLTGNGRGDVVGFGNAGVYVALNNGDGTFQSAKLVLKDFGVQQGWTVSKHRRFVVDLTGDGCADIIGFGEKETLVSYNDGKGNFGPVKALTNDFSFSGGKWAPETTVCWMANLDSSRH
glycan array binding signal (z-score) [1]: -0.432 | glycan array binding signal (z-score) [2]: -0.252 | glycan array binding signal (z-score) [3]: -0.223 | glycan array binding signal (z-score) [4]: -0.171 | glycan array binding signal (z-score) [5]: -0.114 | glycan array binding signal (z-score) [6]: 0.106 | glycan array binding signal (z-score) [7]: -0.172 | glycan array binding signal (z-score) [8]: -0.154 | glycan array binding signal (z-score) [9]: -0.383 | glycan array binding signal (z-score) (Neu5Ac(a2-3)GalNAc): -0.137 | glycan array binding signal (z-score) [10]: -0.278 | glycan array binding signal (z-score) [11]: -0.371 | glycan array binding signal (z-score) [12]: -0.33 | glycan array binding signal (z-score) [13]: -0.146 | glycan array binding signal (z-score) [14]: -0.352 | glycan array binding signal (z-score) (Neu5Ac(a2-6)Gal): -0.283 | glycan array binding signal (z-score) [15]: -0.313 | glycan array binding signal (z-score) (Neu5Ac(a2-6)Gal(b1-4)Glc): -0.303 | glycan array binding signal (z-score) [16]: -0.153 | glycan array binding signal (z-score) [17]: -0.097 | glycan array binding signal (z-score) [18]: -0.164 | glycan array binding signal (z-score) [19]: -0.27 | glycan array binding signal (z-score) [20]: -0.33 | glycan array binding signal (z-score) [21]: -0.22 | glycan array binding signal (z-score) [22]: -0.341 | glycan array binding signal (z-score) [23]: -0.223 | glycan array binding signal (z-score) [24]: -0.237 | glycan array binding signal (z-score) [25]: -0.203 | glycan array binding signal (z-score) [26]: -0.099
